This passage reports IC50 results from patent publication US11420968B2 (priority 2018, dated 2022).

Molecules are shown by their SMILES. Like-named read-outs stand apart in the source and are kept apart here.

One assay has as its system RS4;11 cells. Description: cells. Conditions: Homo sapiens.
The subject of another assay is Molt-4 cells. In words: cells. As to conditions: Homo sapiens.
The mark [1] stands for this setting: RS4-11, 48 h, read-out: Cellular activity (IC50, nM) RS4;11.
[2] abbreviates: MOLT-4, read-out: Cellular activity (IC50, nM) Molt-4.
The mark [3] stands for this setting: RS4-11, 48 h, read-out: Cellular activity (IC50, nM) RS4, 11.

Consider `CC1(C)CCC(CN2CCN(c3ccc(C(=O)NS(=O)(=O)c4ccc(NCC5CCOCC5)c([N+](=O)[O-])c4)c(Oc4cnc5[nH]ccc5c4)c3)CC2)=C(c2ccc(Cl)cc2)C1` [ABT-199, Venetoclax, reference compound], for which the IC50 in the assay with RS4;11 cells (setting [1]) came out at 9.5 nM; in the assay with RS4;11 cells (RS4-11, read-out: Celluclar activity (IC50, nM) RS 4, 11), 9.5 nM; with RS4;11 cells (RS4-11, read-out: Cellular activity (IC50, nM)), 3.8 nM; in the assay with Molt-4 cells (MOLT-4, read-out: Celluclar activity (IC50, nM) Molt-4) it was 3170 nM; in the assay on Molt-4 cells (setting [2]) it was 3170 nM.
For the compound `CC1(C)Oc2cccc(C3CCCN3C3CC=C(c4ccc(C(=O)NS(=O)(=O)c5ccc(NCC6CCOCC6)c([N+](=O)[O-])c5)c(Oc5cnc6[nH]ccc6c5)c4)CC3)c2O1` (centres unmarked) [Example C161, 3-((1H-pyrrolo[2,3-b]pyridin-5-yl)oxy)-4′-(2-(2,2-dimethylbenzo[d][1,3]dioxol-4-yl)pyrrolidin-1-yl)-N-((3-nitro-4-(((tetrahydro-2H-pyran-4-yl)methyl)amino)phenyl)sulfonyl)-2′,3′,4′,5′-tetrahydro-[1,1′-biphenyl]-4-carboxamide], the figures for the IC50 with RS4;11 cells (setting [3]) and in the assay on Molt-4 cells (setting [2]) were 400 nM and greater than 10000 nM, respectively.
As for `O=C(NS(=O)(=O)c1ccc(NCC2CCOCC2)c([N+](=O)[O-])c1)c1ccc(N2CCC3(CC2)CC(c2ccccc2-c2ccccc2C2CC2)C3)cc1Oc1cnc2[nH]ccc2c1` [Example F93, 2-((1H-pyrrolo[2,3-b]pyridin-5-yl)oxy)-4-(2-(2′-cyclopropyl-[1,1′-biphenyl]-2-yl)-7-azaspiro[3.5]nonan-7-yl)-N-((3-nitro-4-(((tetrahydro-2H-pyran-4-yl)methyl)amino)phenyl)sulfonyl)benzamide], the IC50 is 900 nM in the assay with RS4;11 cells (setting [1]) and greater than 10000 nM with Molt-4 cells (setting [2]).
In the case of `O=C(NS(=O)(=O)c1ccc(N[C@H]2CC[C@H](N(CC3CC3)CC3CC3)CC2)c([N+](=O)[O-])c1)c1ccc(C2=CCC(N3CCCC3c3ccccc3C3CC3)CC2)cc1Oc1cnc2[nH]ccc2c1` (some centres unmarked) [Example G13, 3-((1H-pyrrolo[2,3-b]pyridin-5-yl)oxy)-N-((4-(((1r,4r)-4-(bis(cyclopropylmethyl)amino)cyclohexyl)amino)-3-nitrophenyl)sulfonyl)-4′-(2-(2-cyclopropylphenyl)pyrrolidin-1-yl)-2′,3′,4′,5′-tetrahydro-[1,1′-biphenyl]-4-carboxamide], the IC50 with RS4;11 cells (setting [3]) is 72 nM; in the assay with Molt-4 cells (setting [2]) it was greater than 10000 nM.
In the case of `C=C(C)c1ccccc1C1CCCN1C1CCC(c2ccc(C(=O)NS(=O)(=O)c3ccc(NCC4CCOCC4)c([N+](=O)[O-])c3)c(Oc3cnc4[nH]ccc4c3)c2)CC1` (stereo not drawn) [Example D6, trans- or cis-2-(1H-pyrrolo[2,3-b]pyridin-5-yl)oxy)-N-((3-nitro-4-(((tetrahydro-2H-pyran-4-yl)methyl)amino)phenyl)sulfonyl)-4-(4(2-(2-(prop-1-en-2-yl)phenyl)pyrrolidin-1-yl)cyclohexyl)benzamide], the IC50 with RS4;11 cells (setting [3]) was 178 nM; with Molt-4 cells (setting [2]) it was 5050 nM.
In the case of `O=C(NS(=O)(=O)c1ccc(NCC2CCOCC2)c([N+](=O)[O-])c1)c1ccc(N2CCC3(CC2)CC(N2CCCC2c2cccc(Cl)c2C2CC2)C3)cc1Oc1cnc2[nH]ccc2c1` (single isomer, unassigned) [Example F72a, (R or S)-2-((1H-pyrrolo[2,3-b]pyridin-5-yl)oxy)-4-(2-(2-(3-chloro-2-cyclopropylphenyl)pyrrolidin-1-yl)-7-azaspiro[3.5]nonan-7-yl)-N-((3-nitro-4-(((tetrahydro-2H-pyran-4-yl)methyl)amino)phenyl)sulfonyl)benzamide], the results for the IC50 with RS4;11 cells (setting [1]) and in the assay with Molt-4 cells (setting [2]) were 25 nM and 7890 nM, respectively.
In the case of `NC(=O)C1CCC(c2ccccc2[C@H]2CCCN2c2ccc(-c3ccc(C(=O)NS(=O)(=O)c4ccc(NCC5CCOCC5)c([N+](=O)[O-])c4)c(Oc4cnc5[nH]ccc5c4)c3)cc2)CC1` (stereo partly drawn) [Example A115, (R)-3-((1H-pyrrolo[2,3-b]pyridin-5-yl)oxy)-4′-(2-(2-(4-carbamoylcyclohexyl)phenyl)pyrrolidin-1-yl)-N-((3-nitro-4-(((tetrahydro-2H-pyran-4-yl)methyl)amino)phenyl)sulfonyl)-[1,1′-biphenyl]-4-carboxamide], the IC50 in the assay with RS4;11 cells (setting [1]) is 22 nM; in the assay with Molt-4 cells (setting [2]), 3840 nM.

The term IC50 denotes the concentration that gives 50% inhibition.
